According to the RNAGym collection of RNA variant scans (doi:10.1093/nar/gkz1192):
Read counts are not given, so values of variants with three or more changes are uncertain.

B1: CPEB3 Ribozyme (parent)
chain: UAACAGGGGGCCACAGCAGAAGCGUUCACGUCGCAGCCCCUGUCAGAUUCUGGUGAAUCUGCGAAUUCUGCUGUAUAUCUC

Variants of: B1
Test: self-cleavage, relative activity (ratio to wild type); higher = more cleavage; in vitro, sequencing
Method in brief: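 CPEB3 self-cleaving ribozyme mutant libraries were made by rounds of error-prone PCR, barcoded, and transcribed in vitro with T7 RNA polymerase for 5 hours at 37°C. Cleavage occurred during transcription and a 15 min DNase I step before EDTA stop. RNAs were reverse transcribed with template switching and Illumina-sequenced, with DNA sequencing mapping barcodes to variants. Relative activity is the variant's cleaved/total read fraction divided by wild type's (minimum 5 reads), averaged across three batches.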
Work on U1A A35G U72A yielded a self-cleavage of 1.18.
With U1A A3U A20G U31C A47G the self-cleavage was 0.85.
For U1A A13G U67A, the self-cleavage was 0.46.
Variant U1A A5G U31A U66C U67A has a self-cleavage of 0.18.
U1A A13U A20U U49A C50G U51C U54A showed a self-cleavage of 0.1.
Variant U1A A15U A35G U48C has a self-cleavage of 1.02.
With U1A A28U U49A U51A the self-cleavage was 0.16.
For U1A A5G A18U U26A A47G A57G U80C, the self-cleavage was 0.42.
In the case of U1A A5G A15G U41C U60G, the self-cleavage is reported as 0.82.
U1A A18U U31A showed a self-cleavage of 0.15.
U1A A5U A13G G24A U25C U41C gave a self-cleavage of 0.47.
Variant U1A A13G A20U A47G U51A U54C has a self-cleavage of 0.2.
U1A A15G G19U U31G U43C U58C U67A gave a self-cleavage of 0.11.
Work on U1A A18G A45G yielded a self-cleavage of 0.48.
For U1A A3C A13G A15U U51C U54G U60C, the self-cleavage was 0.73.
Work on U1A A3G A15G U43C A45G A65G U80C yielded a self-cleavage of 0.2.
Work on U1A A20G U26C A28C U60C yielded a self-cleavage of 0.08.
In the case of U1A A13U A20G A28G G55U U76C, the self-cleavage is reported as 0.25.
U1A A3G U26A U51A U80A showed a self-cleavage of 1.12.
U1A A21G C39U U49C gave a self-cleavage of 0.04.
Variant U1A A18U A21U U31G A45U U67C has a self-cleavage of 0.13.
U1A A21G G30C A56G A57G gave a self-cleavage of 0.16.
Variant U1A A18G A56U has a self-cleavage of 0.3.
For U1A A15U A45U U72A, the self-cleavage was 0.33.
For U1A A21G U25C A28G U74C, the self-cleavage was 0.47.
U1A A15U U41A U43A U51A U67C U69C showed a self-cleavage of 0.1.
Work on U1A A15G U31A U76G A77U yielded a self-cleavage of 0.38.
U1A A2G C38G U43A C59A A77U gave a self-cleavage of 0.46.
U1A A20U U41C A45U U72A U78C gave a self-cleavage of 0.09.
In the case of U1A A45G A56U U58A A77U U80C, the self-cleavage is reported as 0.08.
Variant U1A A13C U41C has a self-cleavage of 0.84.
With U1A A18G A47G U49C U51A the self-cleavage was 0.2.
Variant U1A A21G U26C G42A G55A C62U has a self-cleavage of 0.07.
U1A A28U G33A A47G U51A A57G C81G showed a self-cleavage of 0.08.
For U1A A21G A28C U78A, the self-cleavage was 0.35.
Variant U1A A3G A20U U26C A47U U72C has a self-cleavage of 0.29.
U1A A21G U26G showed a self-cleavage of 0.35.
For U1A A2C C37U U41G U49C U72C U80C, the self-cleavage was 0.27.
U1A A5U A15U A18G C32U U54A U58C gave a self-cleavage of 0.17.
U1A A13G U43A U51A U69C A75U gave a self-cleavage of 0.29.
Variant U1A C4U A15G G16A A56U has a self-cleavage of 0.09.
With U1A A15G U26C C38A A57G U69A the self-cleavage was 0.09.
U1A A13G U41A gave a self-cleavage of 0.1.
In the case of U1A A5C A13U A15U U26C A65G, the self-cleavage is reported as 0.08.
For U1A A18G A20U G36A U43C A56G, the self-cleavage was 0.03.
In the case of U1A C4A A15C C29U A57U U60C U72C, the self-cleavage is reported as 0.12.
Work on U1A A20U U74C A75U U78C yielded a self-cleavage of 0.44.
U1A A20G C50G U51C showed a self-cleavage of 0.
U1A C12U G24C A28U G53U U54C G73C showed a self-cleavage of 0.07.
For U1A A21G U60G, the self-cleavage was 0.26.
U1A A47G U54C gave a self-cleavage of 0.79.
U1A A18G A35G U48A U78A showed a self-cleavage of 0.34.
For U1A A18G U26A A45G, the self-cleavage was 0.25.
For U1A A5U A15G A20G U25C A35G A64G, the self-cleavage was 0.
Work on U1A C4A C11U U25C C32A U80A yielded a self-cleavage of 0.09.
In the case of U1A A13U U80C, the self-cleavage is reported as 1.27.
U1A A13U U49C U58C showed a self-cleavage of 0.32.
U1A A28C U49C A64G showed a self-cleavage of 0.29.
U1A A28G A64G showed a self-cleavage of 0.47.
U1A A2G U25G U67C U69A gave a self-cleavage of 0.21.
In the case of U1A A3C A15U A18G U60A, the self-cleavage is reported as 0.56.
Variant U1A A5G C11A U72C has a self-cleavage of 0.69.
For U1A A18G A35G A45G, the self-cleavage was 0.64.
U1A A15U A20G U67C gave a self-cleavage of 0.76.
Work on U1A A5U G16A U67A yielded a self-cleavage of 0.28.
Work on U1A C12U C32A U74C yielded a self-cleavage of 0.2.
In the case of U1A A28U U54C A75G, the self-cleavage is reported as 0.6.
Variant U1A A3U A15G A35U U60C U80C has a self-cleavage of 0.5.
Work on U1A A28G A47G U54C G63C A77G yielded a self-cleavage of 0.14.
U1A C14U U25A U60A U69C showed a self-cleavage of 0.21.
Work on U1A A21G A64G yielded a self-cleavage of 0.36.
Work on U1A A5G A18G U54C U78A yielded a self-cleavage of 0.4.
In the case of U1A A13G U54A G73A, the self-cleavage is reported as 1.14.
Variant U1A A20G U25C C37U U43C has a self-cleavage of 0.16.
Variant U1A A21G A56G has a self-cleavage of 0.51.
Work on U1A A15G U31C U72C yielded a self-cleavage of 1.07.
For U1A A45U U60A, the self-cleavage was 0.65.
U1A A28U U54C showed a self-cleavage of 0.8.
Variant U1A A35U C39A U49G has a self-cleavage of 0.08.
Variant U1A A3G U41G U51C C71U U78C has a self-cleavage of 0.28.
In the case of U1A C11G A13U A21G U66C U76C, the self-cleavage is reported as 0.38.
Work on U1A A3C A15U A21G A28G A35G yielded a self-cleavage of 0.81.
U1A A28G U58G U72C gave a self-cleavage of 0.25.
With U1A C11U U67A U72C the self-cleavage was 0.39.
For U1A A15G A28G U54C, the self-cleavage was 0.17.
Variant U1A A5C A13G A15G U60A U67C A75G has a self-cleavage of 0.
U1A A5U C38U A45C U60C U72C gave a self-cleavage of 0.58.
With U1A A3G G33U U51A G63C A75G the self-cleavage was 0.14.
In the case of U1A A3C U41G A47U, the self-cleavage is reported as 0.4.
For U1A A13U A21G A65G U74A, the self-cleavage was 0.51.
U1A A64U U66C U69C U72C gave a self-cleavage of 0.15.
Variant U1A A3C G22A U31C A56G has a self-cleavage of 0.08.
For U1A A18G U26C U54C U60A, the self-cleavage was 0.17.
For U1A A15G A35U U48C A57U, the self-cleavage was 0.12.
In the case of U1A C12A C14A U31A U69A, the self-cleavage is reported as 0.31.
Variant U1A A5G G52A G73A has a self-cleavage of 1.09.
Work on U1A A20G A45G U51C A57G yielded a self-cleavage of 0.23.
With U1A A56G A65G the self-cleavage was 0.14.
Work on U1A A13U A64U yielded a self-cleavage of 0.28.
In the case of U1A A45G A57C U67C, the self-cleavage is reported as 0.13.
Variant U1A A18C A57U has a self-cleavage of 0.31.
For U1A A5G U51C, the self-cleavage was 0.59.
In the case of U1A A13U A15G U78C, the self-cleavage is reported as 0.81.
For U1A A28G A75G, the self-cleavage was 0.29.
Variant U1A A18U A65G has a self-cleavage of 0.33.
U1A A2G A15G U26A A45G U54A A75G showed a self-cleavage of 0.19.
Variant U1A A3U A45G U67C C79G U80C has a self-cleavage of 0.56.
Work on U1A A15U A20U yielded a self-cleavage of 0.41.
U1A A2G A5G U43A U54C showed a self-cleavage of 0.75.
Work on U1A A13G A75G yielded a self-cleavage of 0.93.
Variant U1A A5G A13U C14U U25C A65G U66C has a self-cleavage of 0.08.
In the case of U1A A2G A21G A47G A65G U74C, the self-cleavage is reported as 0.15.
Variant U1A A28G C44U U54A has a self-cleavage of 0.27.
Variant U1A A57G U66C U67A C68U has a self-cleavage of 0.3.
In the case of U1A A2G A28G U41A A45G, the self-cleavage is reported as 0.56.
With U1A A3C U48C U54G the self-cleavage was 0.67.
In the case of U1A A21G U25C A45U U69A, the self-cleavage is reported as 0.07.
Variant U1A A13C C34U A35G G36U has a self-cleavage of 0.08.
U1A A18G A56U U69A showed a self-cleavage of 0.34.
U1A A21G C38U gave a self-cleavage of 0.41.
With U1A A2G G8C A13G A15G U43G U49A the self-cleavage was 0.73.
In the case of U1A A2G A28C U43C U78G, the self-cleavage is reported as 0.25.
In the case of U1A A21C G30A U41C A47G U54C U67A, the self-cleavage is reported as 0.16.
With U1A A5U U60A A64G U74A the self-cleavage was 0.87.
With U1A A18U U25A A64G the self-cleavage was 0.18.
For U1A A28U G33U, the self-cleavage was 0.15.
Variant U1A A21U A56G U78C has a self-cleavage of 0.19.
With U1A A15G A20G U74A the self-cleavage was 0.7.
For U1A A21G U26C A35U, the self-cleavage was 0.21.
In the case of U1A A5G U69A, the self-cleavage is reported as 0.37.
For U1A A21U A65G, the self-cleavage was 0.19.
Variant U1A A3G C11U U25C has a self-cleavage of 0.38.
Variant U1A A28G A56U U58G has a self-cleavage of 0.09.
Variant U1A A18G U26C C34U A57G U72C has a self-cleavage of 0.04.
U1A A2G U54G gave a self-cleavage of 0.5.
U1A A13U A21G C32U U49A gave a self-cleavage of 0.21.
For U1A A35G A57G, the self-cleavage was 1.29.
Work on U1A A47G U58C yielded a self-cleavage of 1.12.
Work on U1A A45C A47G G55U U72C yielded a self-cleavage of 0.16.
U1A A3G C40U U66C gave a self-cleavage of 0.13.
U1A A13G A18G A45G A47G gave a self-cleavage of 0.13.
U1A A2G U41C U72C showed a self-cleavage of 1.1.
Work on U1A A15U A18G yielded a self-cleavage of 0.42.
In the case of U1A A5U U25C, the self-cleavage is reported as 0.27.
U1A A20U U26G showed a self-cleavage of 0.34.
Work on U1A A2G C23U A35U yielded a self-cleavage of 0.27.
Variant U1A A3G G53C U72C has a self-cleavage of 1.51.
U1A A35U U78C gave a self-cleavage of 0.49.
In the case of U1A A2G A13U G22A U67C U74C, the self-cleavage is reported as 0.08.
Work on U1A A20G U25A U31A C39U yielded a self-cleavage of 0.06.
U1A A3C A18G A56U U67C G70C gave a self-cleavage of 0.29.
In the case of U1A A3G C32U, the self-cleavage is reported as 0.37.
Variant U1A A35G A45U U51A has a self-cleavage of 1.12.
U1A A35U U43C U69C gave a self-cleavage of 0.25.
For U1A C11A U25C U60C U80C, the self-cleavage was 0.23.
For U1A A20G A57G U69A, the self-cleavage was 0.27.
U1A A5G U31C G33A C71A gave a self-cleavage of 0.12.
With U1A A28G U48C A57G A65G the self-cleavage was 0.49.
With U1A A20C A45G A56G U74C the self-cleavage was 0.27.
Work on U1A A18U G46U A75G yielded a self-cleavage of 0.08.
Work on U1A A3C C4A A13U A20U U67C U69C yielded a self-cleavage of 0.27.
U1A A20C C37U A45G A56G A57G U72A showed a self-cleavage of 0.13.
With U1A A35G U76C the self-cleavage was 1.26.
U1A C4U A13U C34G showed a self-cleavage of 0.31.
Work on U1A A15G G55U yielded a self-cleavage of 1.03.
Work on U1A A2G U25C U67C U80C yielded a self-cleavage of 0.07.
In the case of U1A A18G A20U A21U U49C U74C, the self-cleavage is reported as 0.06.
